Measurements: PMC4336329 (PLoS ONE, 2015)
The campaign covered roughly 310,000 compounds. About 2,200 (0.71%) showed an effect of 50% or more. The effect is printed as a negative number. The list shows a part of the results.

biological target: human ether-à-go-go-related gene (hERG) potassium channel (human, UniProt Q12809); test: primary screen, population patch clamp on CHO cells stably expressing hERG
Sequence (Q12809 whole entry, looked up): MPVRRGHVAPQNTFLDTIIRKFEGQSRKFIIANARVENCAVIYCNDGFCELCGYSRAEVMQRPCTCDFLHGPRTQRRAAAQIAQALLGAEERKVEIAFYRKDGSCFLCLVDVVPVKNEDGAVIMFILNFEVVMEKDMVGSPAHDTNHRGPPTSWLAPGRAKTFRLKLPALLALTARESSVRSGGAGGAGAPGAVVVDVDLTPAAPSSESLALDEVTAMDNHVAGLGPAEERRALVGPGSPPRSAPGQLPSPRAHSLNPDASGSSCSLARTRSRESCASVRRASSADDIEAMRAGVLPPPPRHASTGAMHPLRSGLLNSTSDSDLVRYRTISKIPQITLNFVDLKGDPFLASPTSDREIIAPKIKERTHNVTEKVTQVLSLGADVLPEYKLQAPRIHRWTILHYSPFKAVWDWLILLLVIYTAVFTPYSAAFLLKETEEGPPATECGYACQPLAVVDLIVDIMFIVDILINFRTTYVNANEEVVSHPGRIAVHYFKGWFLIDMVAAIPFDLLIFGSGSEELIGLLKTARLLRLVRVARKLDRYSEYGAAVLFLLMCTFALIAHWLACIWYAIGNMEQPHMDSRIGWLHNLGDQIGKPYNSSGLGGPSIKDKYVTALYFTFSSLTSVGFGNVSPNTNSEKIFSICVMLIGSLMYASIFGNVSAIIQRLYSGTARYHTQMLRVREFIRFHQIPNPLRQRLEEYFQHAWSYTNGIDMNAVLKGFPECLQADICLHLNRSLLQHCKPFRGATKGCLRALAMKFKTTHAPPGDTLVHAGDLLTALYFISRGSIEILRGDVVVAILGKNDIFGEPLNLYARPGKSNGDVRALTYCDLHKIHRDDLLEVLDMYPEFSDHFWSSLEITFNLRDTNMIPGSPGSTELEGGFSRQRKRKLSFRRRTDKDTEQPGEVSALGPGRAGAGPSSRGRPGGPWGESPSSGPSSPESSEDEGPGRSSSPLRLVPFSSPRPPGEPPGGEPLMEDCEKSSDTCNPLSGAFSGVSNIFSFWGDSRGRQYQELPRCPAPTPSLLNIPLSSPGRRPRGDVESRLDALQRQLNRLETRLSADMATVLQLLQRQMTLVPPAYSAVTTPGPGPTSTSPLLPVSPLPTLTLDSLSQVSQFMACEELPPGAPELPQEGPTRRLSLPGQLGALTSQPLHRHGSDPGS

In order of falling “hERG current change (%, negative = inhibition) at 1uM” value:
1. CC(=O)N1CC(C)Oc2ccc(S(=O)(=O)NC(CC(=O)O)c3ccccc3C)cc21 (stereo not drawn)  21.4%
2. COc1ccc(NS(=O)(=O)c2ccc3nc(COc4ccc5ccccc5c4)[nH]c3c2)cc1  20.2%
3. CCCOc1ccc(-c2c(C(=O)N/N=C/c3cccs3)nnn2-c2nonc2N)cc1  18.2%
4. COc1ccc(OCc2cc(C(=O)N3CCSCC3)no2)c(Cl)c1  17.4%
5. COc1ccc(C)cc1NC(=O)C(=O)N1CCCC1  17.4%
6. CN(C)/C=N/NC(=O)c1ccc(Cl)cc1  17.3%
7. O=c1c(S(=O)(=O)c2ccc(Cl)cc2)cn(Cc2cccc(F)c2)c2ccc(F)cc12  16.9%
8. O=C(NCc1ccccc1)c1onc(CSc2ccccc2)c1C(=O)NCc1ccccc1  16.8%
9. O=C(NCC(=O)N1CCCC(C(F)(F)F)C1)c1ccccc1F (stereo not drawn)  16.4%
10. CCn1c(-c2ccc(C(C)(C)C)cc2)n[nH]c1=S  16%
11. Cc1ccc(-c2ncccc2OC(=O)C23CC4CC(CC(C4)C2)C3)cc1.Cl  15.9%
12. COc1ccc2nc(/N=C/c3c(C)[nH]n(-c4ccc(C)cc4C)c3=O)sc2c1  15.9%
13. CN(CCc1cn[nH]c1)Cc1nc(Cc2ccccc2)no1  15.6%
14. CC(=O)N1CCCc2cc(S(=O)(=O)Nc3cccc(C)c3C)ccc21  15.5%
15. Cc1ccc(-c2cc(C(=O)N/N=C/C(Br)=C/c3ccccc3)n[nH]2)o1  15.5%
16. CCC(C)NS(=O)(=O)c1ccc(NC(=O)c2cccs2)cc1 (stereo not drawn)  15.3%
17. CCOc1ccc2nc(NC(=O)/C=C/c3ccc4c(c3)OCO4)sc2c1  14.8%
18. Cc1cccc(-c2cnn(-c3ccccc3)c2N)c1  14.4%
19. CCOC(=O)C1=NN(c2ccc(Cl)cc2)C(=O)C1  13.6%
20. CC(C)Oc1ccccc1C1CC(=O)Nc2c1c(=O)n(C)c(=O)n2C (stereo not drawn)  13.4%
21. COc1ccc2c(=O)c(C(=O)O)c(-c3ccc4c(c3)OCO4)n(C)c2c1  12.9%
22. O=C1[C@@H]2C(c3ccc(F)cc3)=NO[C@@H]2C(=O)N1Cc1ccccc1  12.9%
23. Cc1ccc(S(=O)(=O)c2c(O)c3ccc(C(=O)O)cc3[nH]c2=O)cc1  12.3%
24. C=CCN(C(=O)CSC1=NC(=O)CN1C(C)=O)c1nc(C)c(-c2ccccc2)s1  12%
25. O=S(=O)(c1ccc(F)cc1)N1CCN(C(=S)NCCc2ccccc2)CC1  11.5%
26. COC(=O)C(NC(C)=O)(Nc1nc(C)cs1)C(F)(F)F (stereo not drawn)  11.4%
27. COc1ccc(C(=O)C2CCCN(C(=O)Cc3c(C)noc3C)C2)cc1OC (stereo not drawn)  11.3%
28. CCC(OC(=O)c1nsc(Cl)c1Cl)C(=O)NC(C)(C)C (stereo not drawn)  11.1%
29. Nc1nc(SCc2ccc(Br)cc2)n[nH]1  10.7%
30. Cc1ccc(-c2nn(-c3ccccc3)cc2C2CC(c3ccccc3)=NN2C(=O)CCC(=O)O)cc1 (stereo not drawn)  10%
31. CCOC(=O)c1nc(C)nc(Sc2n[nH]c(-c3cc(Cl)cc(Cl)c3)n2)c1C  9.95%
32. Cc1cccc(N2C(=O)c3cccc4c(N)ccc(c34)C2=O)c1  9.62%
33. O=c1[nH]c2cccnc2n1-c1cccc([N+](=O)[O-])c1  9.56%
34. COc1ccc(NC(=O)c2ccc3ccccc3c2OC)cc1  9.51%
35. CC1(c2ccccc2)CC(c2ccccc2)=Nc2ccccc2N1 (stereo not drawn)  9.5%
36. CCc1nc(N)c(C#N)c(-c2ccc(O)c(OC)c2)c1C  9.01%
37. O=c1[nH]c(=O)n(-c2ccc(Br)cc2)c(O)c1C=NC(CO)(CO)CO  8.94%
38. COc1ccc(NC(=O)COc2ccc(/C=C/c3cccc[n+]3C)cc2OC)cc1.[I-]  8.91%
39. Cc1ccc(S(=O)(=O)N2[C@@H](c3ccccc3)C(C(=O)O)=CC[C@H]2c2ccc3c(c2)OCO3)cc1  8.76%
40. COc1ccccc1CC(=O)N(Cc1ccccc1)c1cccc(C)c1  8.75%
41. CC1(C)C=C(c2ccc(C(=O)O)s2)CC(C)(C)N1.Cl  8.74%
42. Cc1nc2cc(C(=O)OCC(=O)NC(C)C(C)C)ccc2n1-c1ccccc1 (stereo not drawn)  8.33%
43. COc1ccc(-c2nc(N3CCOCC3)nc3n[nH]c(N)c23)cc1  8.07%
44. COc1ccc(C=O)cc1CN1CCCN(Cc2ccccc2F)S1(=O)=O  8.05%
45. CN(C)CCCNS(=O)(=O)c1cc(Cl)c(Cl)cc1Cl  7.89%
46. Cc1noc(NS(=O)(=O)c2ccc(NC(=O)C34CC5CC(C3)CC(n3cnc(Cl)n3)(C5)C4)cc2)c1C  7.74%
47. Cc1ccccc1NC(=O)Cn1c(=O)n(-c2ccc(CC(=O)NCC3CCCO3)cc2)c(=O)c2ccccc21 (stereo not drawn)  7.39%
48. COc1ccc(Cn2c(-c3ccco3)nc3c(c(=O)c4ccccc4n3C)c2=O)cc1  7.34%
49. CCn1cc(CN2CCCC(C(=O)Nc3ccc(-c4cscn4)cc3)C2)cn1 (stereo not drawn)  7.21%
50. COc1ccc(-n2ccsc2=S)cc1  6.93%
51. CCOC(=O)c1cccc(NC(=O)CSc2nnnn2C)c1  6.91%
52. O=C(CC1NCCNC1=O)OCCCc1ccccc1 (stereo not drawn)  6.66%
53. Cc1sc(N2C(=O)C3C(C2=O)[C@H]2C=C[C@@H]3C2)c(C#N)c1C (stereo partly drawn)  6.54%
54. CS(=O)(=O)N1CCCC(C(=O)NCc2ccccn2)C1 (stereo not drawn)  6.34%
55. Cc1cc(-c2ccccc2)n2nc(N)nc2n1  5.68%
56. CCN1CCN(S(=O)(=O)c2ccc(Cl)c(C(=O)NCCc3ccccc3)c2)CC1  5.65%
57. CNC(=S)N(Cc1ccco1)Cc1cc2cc(OC)c(OC)cc2[nH]c1=O  5.35%
58. Cc1cccc(NC(=O)C2(c3ccccc3)CCOCC2)c1  5.14%
59. CCOc1ccc(-n2c(SCC(=O)NCc3ccco3)nc3ccccc3c2=O)cc1  4.89%
60. O=C(Nc1cccc(F)c1)N1CCN(C(=O)c2ccco2)CC1  4.87%
61. CCOC(=O)c1c(C)oc2c1c1c(c3ccccc32)OCN(CCCC(=O)O)C1  4.61%
62. Cc1ccccc1/C=C/C(=O)c1ccc([N+](=O)[O-])o1  4.46%
63. COc1ccccc1NC(=O)CSc1nc(N)cc(N)n1  4.44%
64. O=S(=O)(c1ccc(F)c(F)c1F)N1CCN(C(=S)Nc2ccccc2)CC1  4.27%
65. COC(=O)CSc1nnc(-c2ccccc2O)n1-c1ccc(C)cc1  4.16%
66. CC1Oc2cc3oc4c(O)c5c(cc4c(=O)c3c(O)c2C1(C)C)C=CC(C)(C)O5 (stereo not drawn)  3.2%
67. Cc1ccc(CNC(=O)CC(NC(=O)c2ccccc2)c2ccccc2)cc1 (stereo not drawn)  2.63%
68. O=C(/C=C/c1ccc(Cl)cc1)NCCSc1ccccc1  2.26%
69. COC(=O)C1=NNC2C(=O)N(C3CCCCC3)C(=O)C12 (stereo not drawn)  1.34%
70. CC1(C)C2CC=C(CN3CCC(O)CC3)C1C2 (stereo not drawn)  0.781%
71. Cc1cc(C)n2nc(SCC(=O)Nc3c(C)n(C)n(-c4ccccc4)c3=O)nc2n1  -0.183%
72. CCOc1ccc(N2CC(C(=O)NCCc3c[nH]c4ccc(OC)cc34)CC2=O)cc1 (stereo not drawn)  -0.475%
73. CN(CCOc1ccccc1)C(=O)CNC(=O)c1ccc(C(C)(C)C)cc1  -0.513%
74. COc1ccc(C(=O)Nc2ccc(-n3nncc3C(C)(C)C)cc2)cc1  -1.01%
75. O=C(COc1ccc2c(c1)oc(=O)c1ccccc12)NCCN1CCOCC1  -1.07%
76. Cc1ccc(C)c(NC(=O)c2ccccn2)c1  -2.93%
77. CCOc1ccccc1C(=O)N(C)Cc1cc2cc(OC)ccc2[nH]c1=O  -3.03%
78. Cc1ccc(S(=O)(=O)N(C)CC(=O)N/N=C/c2ccc(C)o2)cc1  -4.09%
79. O=C(CN1CCN(S(=O)(=O)/C=C/c2ccccc2)CC1)Nc1ccccc1N1CCOCC1  -6.17%
80. O=C(N/N=C\c1ccc([N+](=O)[O-])o1)c1cncc(Br)c1  -6.83%
81. O=C(CSc1nnc(CNC(=O)c2ccco2)o1)Nc1cccc(C(F)(F)F)c1  -7.49%
82. CCn1cc(C(=O)NCc2ccc3c(c2)OCO3)c(=O)c2cc(F)c(N3CCN(C)CC3)cc21  -12.9%
83. COc1cc(S(=O)(=O)NC2CCCCC2C)ccc1F (stereo not drawn)  -14.1%
84. Cn1c(=O)c2c(SCC(=O)N3CCN(c4ccccc4)CC3)nc(C3CC3)nc2n(C)c1=O  -14.2%
85. COc1ccc(C(=O)NCC(=O)OCC(=O)c2ccc3c(c2)NC(=O)CO3)cc1  -14.3%
86. CCNS(=O)(=O)c1ccc(Br)c(C(=O)OC(C)C(=O)NCC2CCCCC2)c1 (stereo not drawn)  -16.8%
87. COc1cccc(NC(=O)CN(C)C(=O)c2ccc(NC3CC3)c([N+](=O)[O-])c2)c1  -40.8%
